# Hit rate of the full screen: of about 100,000 compounds, about 250 (0.25%) were called active. This list was built around the results that the source calls inconclusive (neither active nor inactive); the mix of calls is not that of the screen. The call rests on the fitted dose curve; in most records, active means well fitted inhibition curve with a large enough effect; inconclusive means small, poorly fitted or top-dose-only effect; inactive means flat fitted curve, though single readings scatter. No potency is given beside an inconclusive call; the fits are too rough. Numbered stars: 1 amine (or outer) side, 2 acyl side, 3 side chain; on linkers, the order of the positions; unused ones are H or OH. Bridge positions count the residues as written; N and C are the ends. Square brackets hold non-standard residues; d marks the D form. Peptide text beside a SMILES is read from it. I, II: the chains in the order shown. Actinocin(9to1) = Cc1c2oc3c(C)ccc(C(=O)[*:1])c3nc-2c(C(=O)[*:2])c(N)c1=O; NMeV = CN[C@H](C(=O)O)C(C)C; Sar = CNCC(=O)O
# Biological target: Alanine aminotransferase 2 (Homo sapiens) (UniProt Q8TD30)
# Test: Primary qHTS assay for inhibitors of Glutamate pyruvate transaminase 2 (GPT2); further: nearly all actives have a fitted effect of over 60% in size
# Settings: Recombinant GPT2, coupled pyruvate oxidase/HRP Amplex Red fluorescence; activity change, negative = inhibition: at 57.7 µM (top of the series) unless noted; series mostly up to 57.7 µM
# In short: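 GPT2 10ng/uL, a-KG 250uM, L-Ala 2mM, HEPES pH7.5 + 0.0001% Tween; 30 min RT. Then Amplex mix (PO/HRP/ThPP), 30 min RT dark, fluorescence. AOA 50uM used as positive control.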
# On the % scale 0 is the no-effect control and ±100 the full control effect; potency means the concentration at half of the fitted maximal effect; tags describe the fitted curve by direction and shape.
# Chain of UniProt Q8TD30 (Q8TD30 whole entry, looked up): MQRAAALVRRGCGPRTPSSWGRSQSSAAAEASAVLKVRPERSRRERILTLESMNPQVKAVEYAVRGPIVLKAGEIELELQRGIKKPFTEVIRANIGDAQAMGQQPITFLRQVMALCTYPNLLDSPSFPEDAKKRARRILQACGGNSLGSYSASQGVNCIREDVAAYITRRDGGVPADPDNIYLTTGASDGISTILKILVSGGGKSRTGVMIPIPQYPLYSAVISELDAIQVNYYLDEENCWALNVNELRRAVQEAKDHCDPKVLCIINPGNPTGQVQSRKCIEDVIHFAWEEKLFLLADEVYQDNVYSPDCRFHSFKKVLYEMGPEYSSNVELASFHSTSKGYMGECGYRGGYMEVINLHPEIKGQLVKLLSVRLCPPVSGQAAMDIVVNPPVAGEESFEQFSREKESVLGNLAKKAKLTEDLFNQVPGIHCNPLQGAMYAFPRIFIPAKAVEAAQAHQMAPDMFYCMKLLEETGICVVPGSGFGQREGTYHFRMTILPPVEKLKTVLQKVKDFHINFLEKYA
SMILES,Potency,"activity change, negative = inhibition",outcome
COc1cccc(-c2cnc3n[nH]c(-c4ccccc4)c3n2)c1,"inconclusive [inhibitor, single point]",–,–
CCOC(=O)C1=C(C)N=C2SC=C(CC(=O)NCCc3cccs3)N2C1c1ccccc1F (stereo unspecified),"inconclusive [inhibitor, single point]",–,–
COc1ccc(CN2CCOC(c3cccnc3)C2)cc1Cn1cccn1 (stereo unspecified),"inconclusive [inhibitor, single point]",–,–
Cc1cc(C(=O)N2CC(N(C3CCOCC3)S(C)(=O)=O)C2)nn1C,–,inactive: 3.37%,–
COc1cccc(NC(=O)C2CCCN(Cc3cccnc3)CCC(=O)NCC2)c1 (stereo unspecified),"inconclusive [inhibitor, single point]",–,–
Cc1ccccc1-c1nc2cnccn2c1NCCC(=O)N1CCCCC1,"inconclusive [inhibitor, partial curve, poor fit]",–,–
Cc1nn(CC(=O)NCCN2CCOC2=O)c(=O)n1CCc1ccccc1,–,inactive: 1.98%,–
CCC(=O)N1CCCN(CC)C2(CCOCC2)C1,"inconclusive [inhibitor, single point]",–,–
COc1ccc(-c2cc3nc4c(c(=O)n3[nH]2)CN(C(=O)c2cc(CN3CCOCC3)on2)CC4)cc1,"inconclusive [inhibitor, single point]",–,–
CCNC(=O)O[C@@H]1CO[C@H]2[C@@H]1OC[C@@H]2NC(=O)c1cccc(C(=O)OC)c1,"inconclusive [inhibitor, partial curve, poor fit]",–,–
Cc1cccc(NC(=O)Cn2c(-c3cccc(Cl)c3)nc(C)c(CCO)c2=O)c1,–,inactive: 4.34%,–
Cc1cccc(S(=O)(=O)N2CCCC(Cn3cc(CO)nn3)C2)c1 (stereo unspecified),"inconclusive [inhibitor, single point]",–,–
COCCOCc1nc(C2CCN(C(=O)c3[nH]nc4c3CCc3cc(OC)ccc3-4)CC2)no1,"inconclusive [inhibitor, single point]",–,–
CN(C(=O)C1C2C(=O)N(C3CCCCCC3)C[C@@]23C=C[C@@H]1O3)C1CCSCC1 (stereo partly specified),"inconclusive [inhibitor, partial curve, poor fit]",–,–
CCCS(=O)(=O)N1CCC(Oc2ccc(-c3noc(-c4ccccc4)n3)cc2)C1 (stereo unspecified),–,–,inactive
"Cc1c2oc3c(C)ccc(C(=O)N[C@@H]4C(=O)N[C@H](C(C)C)C(=O)N5CCC[C@H]5C(=O)N(C)CC(=O)N(C)[C@@H](C(C)C)C(=O)O[C@@H]4C)c3nc-2c(C(=O)N[C@@H]2C(=O)N[C@H](C(C)C)C(=O)N3CCC[C@H]3C(=O)N(C)CC(=O)N(C)[C@@H](C(C)C)C(=O)O[C@@H]2C)c(N)c1=O (I: T[dV]P[Sar][NMeV] / II: T[dV]P[Sar][NMeV]; ester I:1-I:C, II:1-II:C; linker I:N-II:N via Actinocin(9to1))","inconclusive [inhibitor, single point]",–,–
COc1ccc(C(=O)NC2CCN(Cc3cccc(-c4ccc(F)c(F)c4)c3)CC2)cc1,"inconclusive [inhibitor, single point]",–,–
Cc1cc(C)n(CCC(=O)NCC2CCN(c3cc(-c4ccc(Cl)cc4)[nH]n3)CC2)n1,"inconclusive [inhibitor, single point]",–,–
COc1ccc(CN2CCOC[C@H]2c2ncc(-c3ccc(OC)cc3)[nH]2)cc1,"inconclusive [inhibitor, single point]",–,–
O=C1Nc2ccccc2CC12CN(CC1CCOCC1)C2,–,inactive: -1.84% [at 88.5 µM],–
COCCCNC(=O)c1cc(C2CC2)nc2c1c(C1CCCN1)nn2-c1ccccc1 (stereo unspecified),–,–,inactive

SMILES,Potency,"activity change, negative = inhibition",outcome
O=C(O)CCCC(=O)N1Cc2ccccc2CC2(CCCN(Cc3ccccc3)C2)C1 (stereo unspecified),–,–,inactive
Cc1nc2ccccn2c1C(=O)NC(C)c1cnn(-c2ccccn2)c1C (stereo unspecified),–,–,inactive
CNC(=O)[C@@H]1CN(C(=O)Cc2ccccc2Cl)C[C@H]1CO,–,–,inactive
COc1ccc(-c2cc(N3CCCC(NC(=O)Cc4ccc(OC)c(OC)c4)C3)n[nH]2)cc1 (stereo unspecified),"inconclusive [inhibitor, partial curve]",–,–
O=C(Cc1ccc(Cl)cc1)Nc1cccc(-c2nnc3n2CCCC3)c1,"inconclusive [inhibitor, full curve, poor fit]",–,–
CNC(=O)[C@@H]1C[C@H](N)CN1C(=O)c1ccc(OC)c(OC)c1OC,"inconclusive [inhibitor, single point]",–,–
Cc1ccc(C2Cn3nnc(C(=O)N4CCC(C(=O)Nc5ccc(C)c(F)c5)CC4)c3CO2)cc1 (stereo unspecified),–,–,inactive
Cc1ccc(C(=O)N[C@@H]2C=C(C(=O)N[C@@H](CCS(C)(=O)=O)C(N)=O)C[C@@H](O)[C@@H]2O)cc1,"inconclusive [inhibitor, full curve, poor fit]",–,–
CS(=O)(=O)N1C[C@H]2CCN(Cc3cn[nH]c3-c3ccccc3)C[C@H]21,–,–,inactive
CC1=NS(=O)(=O)N(C)C=C1C(=O)OCc1nc(Cc2cccc(C)c2)no1,"inconclusive [inhibitor, single point]",–,–
CCc1ccc(C=C2SC(=S)NC2=O)cc1,"inconclusive [inhibitor, full curve, poor fit]",–,–
COc1ccc(N2CCN(c3nc(C(=O)NCc4ccccc4C)cs3)CC2)cc1,"inconclusive [inhibitor, partial curve, poor fit]",–,–
Cn1cccc1CN1CCC2(CC1)C(=NC1CCCCC1)NC(=O)N2c1cccnc1,"inconclusive [inhibitor, single point]",–,–
CN1CC(=O)N(c2ccccc2)Cc2c(NCCO)ncnc21,"inconclusive [inhibitor, single point]",–,–
O=C1NCC2(CCN(C(=O)c3ccccc3C3CCNC3)CC2)O1 (stereo unspecified),"inconclusive [inhibitor, single point]",–,–
CC1=C(C(=O)O)N2C(=O)[C@@H](NC(=O)[C@H](N)c3ccccc3)[C@H]2SC1,"inconclusive [inhibitor, single point]",–,–
C[S+](=O)([O-])CCn1ncc2cc(OCc3cccc(-c4cccc(CO)c4)c3)ccc21,"inconclusive [inhibitor, single point]",–,–
OCC1CN(C2CCC2)CC12CCN(Cc1ccsc1)CC2 (stereo unspecified),"inconclusive [inhibitor, single point]",–,–
CS(=O)(=O)c1ccc(N2CCN(C(=O)CC3COCCN3)CC2)c(F)c1 (stereo unspecified),"inconclusive [inhibitor, single point]",–,–
CC(=O)c1cccc(NC(=O)Cn2c(-c3ccccc3)nc(C)cc2=O)c1,–,–,inactive
COc1cc(NC(=O)Nc2nc3c(s2)C[C@]2(C)CC[C@@H]4[C@H](OC(=O)[C@H]4C)[C@H]2[C@@H]3C)cc(OC)c1,–,inactive: -17.3%,–

SMILES,Potency,"activity change, negative = inhibition",outcome
CCCS(=O)(=O)N1CCCN(Cc2ccncc2)C(c2ccccc2)CC(=O)NCC1 (stereo unspecified),"inconclusive [inhibitor, single point]",–,–
Cn1nc(-c2ccc(C(F)(F)F)cc2)nc2c(=O)n(C)c(=O)nc1-2,"inconclusive [inhibitor, partial curve, poor fit]",–,–
COc1cc2c(cc1OC)C(C[C@H]1CN(C(=O)c3cccn3C)CC[C@H]1CC(=O)O)=NCC2,–,inactive: -10.2%,–
O=[S+]1([O-])NC2(CCN(CC3CCCCC3)C2)CNc2ccccc21 (stereo unspecified),"inconclusive [inhibitor, single point]",–,–
CCCCc1cc(C[C@@H]2C[C@H](NC(=O)C(C)(C)C)C2(C)C)no1,"inconclusive [inhibitor, partial curve, poor fit]",–,–
Cc1nnc(CN(C)C(=O)CC(c2ccccc2)c2ccc(Cl)cc2)o1 (stereo unspecified),"inconclusive [inhibitor, single point]",–,–
CN1CCN(c2nc(C(=O)NC(C)(C)C)cs2)CC1,–,inactive: -7.6%,–
COc1ccc(CN2CCC3(C2)C(=NC2CCCCC2)NC(=O)N3c2cccc(OC)c2)cc1 (stereo unspecified),–,inactive: 1.45%,–
CC(=O)N1CCCN(c2ncnc3c2CN(C2CCC2)C(=O)CN3C)CC1,"inconclusive [inhibitor, single point]",–,–
COCC1CN(S(=O)(=O)c2cccc(F)c2)CC12CCOCC2 (stereo unspecified),–,–,inactive
COc1ccc(N2CCN(C3CCCN(Cc4cc(=O)[nH]c(=O)[nH]4)C3)CC2)cc1 (stereo unspecified),"inconclusive [inhibitor, partial curve]",–,–
Cc1ccc(C)c(C(=O)NCc2nnc3cc(-c4nc(C)no4)ccn23)c1,–,inactive: 2.23%,–
COc1ccc(-c2cc(N3CCCC(NC(=O)c4cccc5[nH]ccc45)C3)n[nH]2)cc1 (stereo unspecified),"inconclusive [inhibitor, single point]",–,–
O=C1CCN(C(=O)[C@@H]2CCCN2S(=O)(=O)c2cccc3cccnc23)CCCCCCN1,"inconclusive [inhibitor, single point]",–,–
Cc1ccccc1S(=O)(=O)N1CCC(c2noc(-c3cccnc3)n2)C1 (stereo unspecified),–,inactive: -8.29%,–
CC1=C(C)C(=O)OC(C(C)C2CCC3C4C5OC5C5(O)CC(OC6OC(CO)C(OC7OC(C)C(O)C(O)C7O)C(O)C6O)CC(O)C5(C)C4CCC23C)C1 (stereo unspecified),–,–,inactive [at 17.1 µM]
O=C(C(c1cccnc1)N1CCOCC1)N(C/C=C/c1ccccc1)CCO (stereo unspecified),"inconclusive [inhibitor, single point]",–,–
Cc1ccsc1CN1CCCC(c2nc(CCOCC3CCOCC3)no2)C1 (stereo unspecified),"inconclusive [inhibitor, partial curve]",–,–
O=C1N(CCCCOc2ccccc2)c2ccccc2NC12CCNCC2,"inconclusive [inhibitor, partial curve, poor fit]",–,–

# — PubChem BioAssay AID1671188 (National Center for Advancing Translational Sciences (NCATS), 2021)
